This note sets out measurements from the RNAGym collection of RNA variant scans (doi:10.1073/pnas.2313332121).

Variants at the floor of the assay are shown more often than the library holds them.

To fix the notation:
B1: TPR 5TU (parent)
chain: GGAUCUUCUCGAUCUAACAAAAAAGACAAAUCUGCCACAAAGCUUGAGAGCAUCUUCGGAUGCAGAGGCGGCAGCCUUCGGUGGCGCGAUAGCGCCAACGUUCUCAACUAUGACACGCAAAACGCGUGCUCCGUUGAAUGGAGUUUAUCAUG

The data set covers variants of B1. Kind of data set: polymerase ribozyme fitness, log enrichment relative to wild type (log ratio); higher = more active; in vitro selection for triplet polymerase activity. In outline:
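Fitness measures genotype enrichment against wild-type enrichment on a logarithmic scale, with inverse-variance-weighted averaging of replicates. The logarithm is base 2, and genotypes were kept only with ≥10 input reads and ≥1 read per output in Illumina sequencing. The sequenced libraries came from one triplicate in vitro selection round, including frozen incubation at −7 °C, of PCR-built, transcribed mutant libraries of each subunit of a heterodimeric triplet polymerase ribozyme.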
Consider GGAUCUUCUCGAUCUAACAUAAAAGACAAAUCUGCCACAAAGCUUGAGAGCAUCUUCGGAUGCAGAGGCGGUAGCCUUCGGUGGAGCGAUAGCGCCAACGUUCUCAACUAUGACACGCAAAACGCGUGCUCCGCUGAAUGGAGUUUAUCCUG [A20U C72U C85A U134C A150C], for which the “polymerase ribozyme fitness (log ratio)” value is no more than -4.2.

Take GGAUCUUCUCGAUCUAACAUAAAAGACAAAUCUGCCACAAAGCUUGAGAGCAUGUUCGGAUGCAGAGGCGGCAGCCUUCGGUGGCGUGAUAGCGCCAACGUUCUCAACUAUGACGCGCAAAACGCGUGCUCCGUUGAAUGGAGUUUAUUAUG [A20U C54G C87U A115G C149U]: the “polymerase ribozyme fitness (log ratio)” value was no more than -4.2.

In the case of GGAUCUUCUCGAUCUAACAUAAAAGACAAAUCUGCCACAAAGCUUGAGAGCAUCAUCGGAUGCAGAGGCGGCAGCCUUCGGUGGCGCGAUAGAGUCAACGUUCUCAACUAUGACACGCAAAACGCGUGCUCCGUUGAAUGGAGUUUAUCAUG [A20U U55A C93A C95U], the “polymerase ribozyme fitness (log ratio)” value was no more than -4.2.

For the variant GGAUCUUCUCGAUCUAACAUAAAAGACAAAUCUGCCACAAAGCGUAAGAGCAUCUUCGCAUGCAGAGGCGGCAGCCUUCGGUGGCGCGAUAGCGCAAACGUUCUCAACUAUGACCCGCAAAACGCGUGCUCCGUUGAAUGGAGUUUAUCAUG [A20U U44G G46A G59C C96A A115C], the “polymerase ribozyme fitness (log ratio)” value was no more than -4.2.

Turning to GGAUCUUCUCGAUCUAACAUAAAAGACAAAUCUGCCACAAAGCUUGAGAGCAUCUUCGGAUGCAGAGGCGGCAGCCUUCGGAGGCGCGAUAGUGCCAACGUUCUCAACUAUGACACGCAAAACGCGUGCUCCGUUGAAUGGAGUGUAUCAUG [A20U U82A C93U U145G], the “polymerase ribozyme fitness (log ratio)” value is -2.69.

With GGAUCUUCUCGAUCUAACAUAAAAGACAAAUCUGCCACAAAGCUUGAGAGCAUCUUCCGAUGCAGAGGCGGCAGCCAUCGGUGGCGCGAUAGCGUCAACGUUCUUAACUAUGACACGCAAAACGCGUGCUCCGUUGAAUGGAGUUUAUCAUG [A20U G58C U77A C95U C105U], the “polymerase ribozyme fitness (log ratio)” value is no more than -4.2.

Regarding GGAUCUUCUCGAUCUAACAUAAAAGACAAAUCUGCCACAAAGCUUGAGAGCAGCAUCGGAUGCAGAGGCGGCAGCCUACGGUGGCGCGAUAGUGCCAACGUUCUCAACUAUGACACGCAAAACGCGUGCUCCGUUGAAUGGCGUUUACCAUG [A20U U53G U55A U78A C93U A142C U148C], the “polymerase ribozyme fitness (log ratio)” value was no more than -4.2.

Regarding GGAUCUUCUCGAUCUAACAUAAAAGACAAAUCUGCCACAAAGCUUGAGAGCAUCAUCGGAUGCAGAGGCGGCAGCCCUCGGUGGCGCGAUAGCGCAAACGUUCUCAACUAUGACACGCAAAACCCGUGCUCCGUUGAAUGGAGUUUAUCAUG [A20U U55A U77C C96A G124C], the “polymerase ribozyme fitness (log ratio)” value is no more than -4.2.

With GGAUCUUCUCGAUCUAACAACCAAGACAAAUCUGCAACAAAGCUUGACAGCAUCUUCGGAUGCAGAGGCGGCAGCCUUCGGUGGCGCGAUUGCGCCAAGGUUCUCAACUAUGACACGCAAAACGCGUGCUCCGUUGAAUGGAGUUUAUCAUG [A21C A22C C36A G48C A91U C99G], the “polymerase ribozyme fitness (log ratio)” value was no more than -4.2.

For GGAUCUUCUCGAUCUAACAUAAAAGACAAAUCUGCCACAAAGCUUGAGAGCAUAUUCGGAUGCAGAGGCGGCAGCCUUCGGUGGCGCGAUAGCGCCAACGUUCUCAACUAUGACACGCAAAACGCGUGCUCCGUUGAAUGGAGUUUAUCAUG [A20U C54A], the “polymerase ribozyme fitness (log ratio)” value is -2.02.

Regarding GGAUCUUCUCGAUCUAACAUAAAAGACAAAUCUGCCACAAAGCUUGAGAGCAUCUUCGGAUGCAGAGGCGGCAGCCUUCGGUGGCUCGAUAGCGCCAACGUUCUCAACUAUGACCCGUAGAACGCGUGCUCCGUUGGAUGGAGUUUAACAUG [A20U G86U A115C C118U A120G A137G U148A], the “polymerase ribozyme fitness (log ratio)” value is no more than -4.2.

With GGAUCUUCUCGAUCUAACAUAAAAGACAAAUCUGCCACAAAGCUUGAGAGCAUCAUCGGAUGCAGAGGCGGCAGCCUUCGGUGGCGCGAUUGCGCUAACGUUCUCAACUGUGACACGCAAAACGCGUGCUCCGUUGAAUGGAGUUUAUCACG [A20U U55A A91U C96U A110G U151C], the “polymerase ribozyme fitness (log ratio)” value was no more than -4.2.

As to GGAUCUUCUCGAUCUAACAUAAAAGACAAAUCUGCCACAAAGCUUGAGAGCAUCUUCGGAUGAAGAGGCGGCAGCCUUCGGUGUCGUGAUAGCGCCAACGUUCUCAACUAUGACACGCAAAACGCGUGCUCCGUUGAAUGGAGUUUAUCAUG [A20U C63A G84U C87U], the “polymerase ribozyme fitness (log ratio)” value is -3.3.

With GGAUCUUCUCGAUCUAACAUAAAAGACAAAUCUGCCACAAAGCUUGAGAGCAUCUUCGGAAGCAGAGGCGGAAGUCUUCGGUGGCGCGAUAGGGCCAAAGUUCUCAACUAUGACACGCAAAACGCGUGCUGCGUUGAAUGGAGUUUAUCAUG [A20U U61A C72A C75U C93G C99A C131G], the “polymerase ribozyme fitness (log ratio)” value is no more than -4.2.

GGAUCUUCUCGAUCUAACAUAAAACACAAAUCUGCCACAAAGCUUGAGAGCAUCUUCGGAUGCAGAGGCGGCAGCCUUCGGUGGCGCGAUAGCGCCAACGUUCUCAACUAUGACACGCAAAACGCGUGCUCCGUUGAAUGAAGUUUAUCAUG [A20U G25C G141A]: the “polymerase ribozyme fitness (log ratio)” value is -4.03.

For GGAUCUUCUCGAUCUAACAUAAAAGACAAAUCUGCCACAAAGCUUGAGAGCAUCUUAGGAUGCAGAGGCGGCAGCCUUCGGUGUCGCGAUAGCGCCAACGUUCUCAACUAUGACACGCAAAACGCGUGCUCCGUUGAAUGGAGUUUAUCAUG [A20U C57A G84U], the “polymerase ribozyme fitness (log ratio)” value was -3.17.

As for GGAUCUUCUCGAUCUAACAUAAAAGACAAACCUGCCACAAAGCUUGAGAGCAUCUUCGGAUGCAGAGGCGGCAGCCUUCGGUGGCGCGAUAGCGCCAACGUUCUCAACGAUGACACGCAAAACGCGUGCUCCGUUGAAUGGAGUUUAUCAUG [A20U U31C U109G], the “polymerase ribozyme fitness (log ratio)” value was -0.957.

On to GGAUCUUCUCGAUCUAACAUAAAAGACAAAUCUGCCACAAAGCUUGAAAACAUCUUCGGAUGCAGAGGCGGCAGCGUUCGGUGGCGCGAUAGCGCGAACGUUCUCAACUAUGACACGCAAAACGCGUGCUCCGUGGAAUGGAGUUUAUCAUG [A20U G48A G50A C76G C96G U135G], for which the “polymerase ribozyme fitness (log ratio)” value was no more than -4.2.

Regarding GGAUCUUCUCGAUCUAACAUAAAAGACAAAUCUGCCACAAAGCAUGAGAGCAUAUUCGGAUGCAGAGGCGGCAACCUUCGGUGGGGCGAUUGCGCCAACGUUCACAACUAUGACACGCAAAACGCGUGCUCCGUUAAAUGGAGUUUAUCAUG [A20U U44A C54A G74A C85G A91U U104A G136A], the “polymerase ribozyme fitness (log ratio)” value was no more than -4.2.
